# These are yes or no findings as the source states them, for the method shown. In cells and extracts the contact can be indirect. Some binding calls cover weakened binding; strength is not graded here. Tags and fused reporters may be left off the sequences shown.
# The chains behind the UniProt entries cited, without tags or fusion partners. Where a name states a change or a piece, a line headed by the entry shows the natural chain unless it says otherwise.
# UniProt P42003: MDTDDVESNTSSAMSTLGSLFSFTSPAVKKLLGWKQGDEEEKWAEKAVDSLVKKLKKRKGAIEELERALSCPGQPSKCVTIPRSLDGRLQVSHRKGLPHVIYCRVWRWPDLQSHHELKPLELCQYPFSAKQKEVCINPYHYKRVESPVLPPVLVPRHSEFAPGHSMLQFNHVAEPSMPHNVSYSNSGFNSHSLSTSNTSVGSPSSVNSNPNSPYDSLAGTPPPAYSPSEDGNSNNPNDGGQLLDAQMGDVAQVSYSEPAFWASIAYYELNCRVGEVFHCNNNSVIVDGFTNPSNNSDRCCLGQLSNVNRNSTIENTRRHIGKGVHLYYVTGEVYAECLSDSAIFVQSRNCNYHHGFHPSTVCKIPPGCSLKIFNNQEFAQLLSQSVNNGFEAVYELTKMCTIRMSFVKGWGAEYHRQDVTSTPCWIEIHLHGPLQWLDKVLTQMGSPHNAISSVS
# T1: dTcf, Myc-tagged, full length (Drosophila) (UniProt P91943)
# T1 sequence: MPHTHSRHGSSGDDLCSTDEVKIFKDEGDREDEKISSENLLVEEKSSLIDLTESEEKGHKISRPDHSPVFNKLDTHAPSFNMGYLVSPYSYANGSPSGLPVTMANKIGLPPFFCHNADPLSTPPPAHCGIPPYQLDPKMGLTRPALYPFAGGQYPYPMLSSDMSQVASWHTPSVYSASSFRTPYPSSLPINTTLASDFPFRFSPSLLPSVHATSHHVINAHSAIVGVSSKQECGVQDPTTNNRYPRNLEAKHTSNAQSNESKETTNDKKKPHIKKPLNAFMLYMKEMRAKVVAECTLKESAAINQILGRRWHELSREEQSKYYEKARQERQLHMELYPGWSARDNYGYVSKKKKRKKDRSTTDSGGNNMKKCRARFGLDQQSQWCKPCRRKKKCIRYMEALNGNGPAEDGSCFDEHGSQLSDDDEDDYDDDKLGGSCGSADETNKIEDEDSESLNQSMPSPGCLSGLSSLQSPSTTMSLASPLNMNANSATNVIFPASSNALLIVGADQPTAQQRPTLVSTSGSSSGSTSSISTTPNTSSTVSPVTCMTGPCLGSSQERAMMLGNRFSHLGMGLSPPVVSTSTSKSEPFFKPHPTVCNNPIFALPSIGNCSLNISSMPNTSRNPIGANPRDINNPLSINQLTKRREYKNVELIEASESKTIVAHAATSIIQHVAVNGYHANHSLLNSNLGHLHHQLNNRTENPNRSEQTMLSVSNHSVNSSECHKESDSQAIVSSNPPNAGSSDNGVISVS
# T2: Armadillo (Arm; β-catenin), HA-tagged (Drosophila) (UniProt P18824)
# T2 sequence: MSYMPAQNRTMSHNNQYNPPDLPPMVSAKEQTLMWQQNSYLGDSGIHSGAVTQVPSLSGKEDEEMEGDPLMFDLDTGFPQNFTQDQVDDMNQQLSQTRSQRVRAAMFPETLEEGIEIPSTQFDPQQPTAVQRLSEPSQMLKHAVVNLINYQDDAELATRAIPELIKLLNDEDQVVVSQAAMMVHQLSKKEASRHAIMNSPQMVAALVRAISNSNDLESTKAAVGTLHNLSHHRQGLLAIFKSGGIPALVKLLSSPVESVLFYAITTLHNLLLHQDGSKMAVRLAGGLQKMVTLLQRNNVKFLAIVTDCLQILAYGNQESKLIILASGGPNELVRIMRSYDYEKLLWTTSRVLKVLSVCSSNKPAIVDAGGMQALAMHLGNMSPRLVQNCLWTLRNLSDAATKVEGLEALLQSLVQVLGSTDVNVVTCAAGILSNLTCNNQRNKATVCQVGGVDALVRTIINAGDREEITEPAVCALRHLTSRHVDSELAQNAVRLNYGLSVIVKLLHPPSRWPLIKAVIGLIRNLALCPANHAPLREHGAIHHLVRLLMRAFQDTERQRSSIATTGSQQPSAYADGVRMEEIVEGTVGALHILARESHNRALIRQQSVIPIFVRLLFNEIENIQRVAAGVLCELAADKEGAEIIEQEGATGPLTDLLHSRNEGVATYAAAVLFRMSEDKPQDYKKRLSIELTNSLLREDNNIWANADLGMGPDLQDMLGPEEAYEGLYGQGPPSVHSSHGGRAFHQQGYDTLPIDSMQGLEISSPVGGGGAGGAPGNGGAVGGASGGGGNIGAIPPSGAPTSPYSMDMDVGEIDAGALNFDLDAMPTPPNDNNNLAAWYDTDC
# T3: dTcfΔC1 (a.a. 1-522), Myc-tagged (Drosophila) (UniProt P91943)
# T3 sequence: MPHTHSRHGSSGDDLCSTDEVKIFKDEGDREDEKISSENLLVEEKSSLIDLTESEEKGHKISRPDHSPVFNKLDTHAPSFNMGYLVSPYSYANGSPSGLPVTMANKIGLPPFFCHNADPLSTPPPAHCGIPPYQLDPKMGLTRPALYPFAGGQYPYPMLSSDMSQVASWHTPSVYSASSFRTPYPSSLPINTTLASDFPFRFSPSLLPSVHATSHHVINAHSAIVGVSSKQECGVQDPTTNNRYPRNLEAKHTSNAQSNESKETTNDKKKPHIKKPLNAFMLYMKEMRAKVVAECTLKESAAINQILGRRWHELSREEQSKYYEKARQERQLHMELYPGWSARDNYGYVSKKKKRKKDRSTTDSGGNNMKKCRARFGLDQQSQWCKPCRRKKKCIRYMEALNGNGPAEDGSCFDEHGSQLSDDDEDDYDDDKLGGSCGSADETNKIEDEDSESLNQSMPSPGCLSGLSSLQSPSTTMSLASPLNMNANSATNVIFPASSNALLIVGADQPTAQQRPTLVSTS
# T4: dTcfΔC (a.a. 1-394), Myc-tagged (Drosophila) (UniProt P91943)
# T4 sequence: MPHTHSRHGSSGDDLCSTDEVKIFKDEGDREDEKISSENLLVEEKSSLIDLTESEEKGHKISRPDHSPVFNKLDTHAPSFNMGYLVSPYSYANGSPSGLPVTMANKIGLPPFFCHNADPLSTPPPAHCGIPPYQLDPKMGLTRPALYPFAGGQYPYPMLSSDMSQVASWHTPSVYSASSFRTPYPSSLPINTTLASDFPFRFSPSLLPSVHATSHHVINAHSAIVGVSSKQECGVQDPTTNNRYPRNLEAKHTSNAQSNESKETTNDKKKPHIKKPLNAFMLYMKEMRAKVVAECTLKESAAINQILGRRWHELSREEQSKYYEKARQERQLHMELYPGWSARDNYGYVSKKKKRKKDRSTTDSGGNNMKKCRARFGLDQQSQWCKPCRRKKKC
# T5: dTcfΔHMG (a.a. 1-244), Myc-tagged (Drosophila) (UniProt P91943)
# T5 sequence: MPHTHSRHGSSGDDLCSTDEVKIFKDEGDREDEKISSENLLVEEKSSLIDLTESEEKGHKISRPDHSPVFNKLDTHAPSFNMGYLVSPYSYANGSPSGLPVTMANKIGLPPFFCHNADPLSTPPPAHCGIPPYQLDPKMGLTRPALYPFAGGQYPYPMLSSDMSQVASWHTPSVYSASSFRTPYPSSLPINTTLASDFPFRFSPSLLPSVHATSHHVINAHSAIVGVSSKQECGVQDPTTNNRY
# B1: Armadillo (Arm; β-catenin), HA-tagged (protein, UniProt P18824 1-843)
# chain: T2 sequence
# Columns and labels:
# [1] = biological target: T1, dTcf, Myc-tagged, full length (Drosophila); experiment: co-IP; HEK293 cells co-transfected with two tagged Drosophila constructs; lysates IP'd with anti-Myc, anti-T7 or anti-HA (IgG as control), immunoblot for the tags
# [2] = biological target: T1, dTcf, Myc-tagged, full length (Drosophila); experiment: co-IP; HEK293 cells triply transfected with HA-Arm, Myc-dTcf and increasing amounts of T7-Mad; lysates IP'd with anti-Myc, immunoblot with anti-HA, anti-Myc and anti-T7
# [3] = biological target: T2, Armadillo (Arm; β-catenin), HA-tagged (Drosophila); experiment: co-IP; lysates of transfected cells expressing HA-Arm, Myc-dTcf and T7-Mad; IP'd with anti-T7 or with anti-HA, immunoblot for the tags
# [4] = biological target: T3, dTcfΔC1 (a.a. 1-522), Myc-tagged (Drosophila); experiment: co-IP; HEK293 cells co-transfected with two tagged Drosophila constructs; lysates IP'd with anti-Myc, anti-T7 or anti-HA (IgG as control), immunoblot for the tags
# [5] = biological target: T2, Armadillo (Arm; β-catenin), HA-tagged (Drosophila); experiment: as above
# [6] = biological target: T4, dTcfΔC (a.a. 1-394), Myc-tagged (Drosophila); experiment: as above
# [7] = biological target: T5, dTcfΔHMG (a.a. 1-244), Myc-tagged (Drosophila); experiment: as above
# [8] = biological target: T1, dTcf, Myc-tagged, full length (Drosophila); experiment: co-IP; HEK293 cells triply transfected with T7-Mad, Myc-dTcf and increasing amounts of HA-Arm; lysates IP'd with anti-Myc, immunoblot with anti-HA, anti-Myc and anti-T7
# [9] = biological target: Mothers against Dpp (Mad), T7-tagged, full length (Drosophila) (UniProt P42003); experiment: co-IP; lysates of transfected cells expressing HA-Arm, Myc-dTcf and T7-Mad; IP'd with anti-T7 or with anti-HA, immunoblot for the tags
Molecule,binding [1],binding [2],binding [8],further results
"MadΔMH2 (a.a. 1-256), T7-tagged (from UniProt P42003 1-256) (domain or fragment)",no binding,–,–,–
"MadΔMH1 (a.a. 157-455), T7-tagged (from UniProt P42003 157-455) (domain or fragment)",binds,–,–,–
"Mothers against Dpp (Mad), T7-tagged, full length (from UniProt P42003 1-455)",binds,binds,binds,binding [3]: no binding; binding [4]: binds; binding [5]: no binding; binding [6]: binds; binding [7]: no binding
"Mad linker (a.a. 157-256), T7-tagged (from UniProt P42003 157-256) (domain or fragment)",no binding,–,–,–
B1,–,binds,binds,binding [9]: no binding

# Source: PMC2587708
